In the supplement of paper PMC3334620:
In all, about 33,000 sequences were measured (“E-score (-0.5 to 0.5)”: median about -0.035, highest 2% from about 0.34 on). The list shows a part of the results.

Molecular target: T1, Mot3 (UniProt P54785)
T1 sequence: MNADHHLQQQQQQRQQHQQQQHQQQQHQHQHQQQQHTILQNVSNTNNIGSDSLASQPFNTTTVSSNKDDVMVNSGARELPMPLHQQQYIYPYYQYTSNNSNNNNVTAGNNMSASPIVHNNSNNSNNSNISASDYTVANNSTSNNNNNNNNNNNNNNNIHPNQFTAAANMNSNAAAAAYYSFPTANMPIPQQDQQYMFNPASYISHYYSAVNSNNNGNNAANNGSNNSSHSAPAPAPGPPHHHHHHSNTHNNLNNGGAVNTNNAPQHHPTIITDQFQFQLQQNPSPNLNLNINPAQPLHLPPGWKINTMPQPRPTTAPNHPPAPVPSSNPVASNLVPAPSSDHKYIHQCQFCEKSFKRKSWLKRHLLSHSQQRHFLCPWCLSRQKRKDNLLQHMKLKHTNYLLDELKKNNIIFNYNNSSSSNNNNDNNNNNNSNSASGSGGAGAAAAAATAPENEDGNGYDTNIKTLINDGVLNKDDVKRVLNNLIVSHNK
Assay: PBM E-score (8-mer binding enrichment) (E-score (-0.5 to 0.5)); higher = stronger / more preferred TF binding; most listed sequences are background and not binding sites
Conditions: protein concentration: 200 nM; construct: GST-full length
Method in brief: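 E-scores (a modified Wilcoxon-Mann-Whitney statistic) were assigned by the Universal PBM Analysis Suite to every ungapped eight-base word pooled with its reverse complement. The input came from universal all-10-mer Agilent arrays made double-stranded by primer extension and probed with GST-tagged yeast transcription factors at about 100-200 nM. Fluorescent anti-GST detected bound protein, and masliner normalised the scans.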

| Sequence | PBM E-score |
| --- | --- |
| GGCGAGCA | -0.292 |
| CCGGTGAG | -0.29 |
| GTCTAAAA | -0.0185 |
| ACGTTTTG | 0.0796 |
| CGCGGTTA | -0.0223 |
| CACGCCAA | 0.0196 |
| GACGTATA | 0.0915 |
| ACGTCAGT | -0.182 |
| GATGAGGC | -0.0517 |
| AGTGGTTC | -0.0362 |
| TTACCAAA | 0.0638 |
| ATAAAAGC | 0.0662 |
| AGTGTCGG | -0.0559 |
| CCTGTACG | 0.189 |
| CAATCGGA | -0.144 |
| CACGTCGG | 0.0553 |
| AGCTCTAC | 0.143 |
| CTGTAGTC | -0.0244 |
| ACTAGCAG | 0.109 |
| ATGCTGCC | -0.0402 |
| CCGAGAAA | -0.144 |
| GAATTCCC | -0.15 |
| CCTTGCCA | -0.00989 |
| ATACTAAG | -0.05 |
| GCCTCTAC | -0.0382 |

| Sequence | PBM E-score |
| --- | --- |
| GAAGCGCA | -0.156 |
| ACCGATAA | 0.0054 |
| AGCCCTTA | -0.16 |
| GTCGTAAC | 0.085 |
| GGTAATAC | 0.112 |
| ATAAGTTA | 0.213 |
| AGGGTCAA | -0.0327 |
| CCAGCAGC | -0.282 |
| CAGCTATA | -0.00597 |
| CCGTGTAG | 0.367 |
| GCGTAAGC | -0.0393 |
| ATGCATAG | 0.0955 |
| CGCTAAGA | -0.031 |
| CAACCATA | -0.0844 |
| CTCAGTCC | -0.14 |
| CGCGTGCA | 0.0183 |
| CGAATCAA | 0.0349 |
| ATGATAAC | 0.0727 |
| GGCTTCCA | -0.216 |
| ACAACGTC | 0.0585 |
| AGGTATGA | -0.0139 |
| ATGCAACG | 0.0891 |
| GACGGTAC | -0.116 |
| ATCACATA | 0.224 |
| CACCATGA | -0.135 |

| Sequence | PBM E-score |
| --- | --- |
| CAGATCTA | 0.0604 |
| CGCCCCTC | -0.0863 |
| CACGGGTC | -0.0344 |
| GGATTCCA | -0.0253 |
| GATGAGCC | -0.0834 |
| AACGACAA | 0.17 |
| AAATGATG | -0.00115 |
| CCCTAGCG | -0.215 |
| GACGGAGC | -0.277 |
| ACAATCAA | 0.183 |
| CCGTTATC | -0.169 |
| AGCGAAGG | 0.0157 |
| CTCCCTAA | -0.0538 |
| AATGCTCA | -0.108 |
| AGATTATC | -0.148 |
| CACATTCG | 0.149 |
| ATTACCGA | 0.123 |
| AGTCCACG | -0.213 |
| ATCGGTGA | -0.0352 |
| ACTGATCA | -0.0193 |
| AATTGCTC | -0.194 |
| CGCGAACA | 0.0614 |
| ATGACCGC | -0.169 |
| CTTTCCGA | -0.229 |
| AGACGCTG | -0.123 |

| Sequence | PBM E-score |
| --- | --- |
| GGGTGTTA | 0.148 |
| CATCGCAG | -0.143 |
| GCCGTCCA | -0.0498 |
| GCCCGAAA | -0.0818 |
| ATAGATTA | 0.14 |
| CCGCTTTA | 0.117 |
| ATCACTAG | -0.0297 |
| GGTACACC | 0.0315 |
| AATAGAAT | 0.0328 |
| CACTGGTA | -0.00383 |
| CCATCGTC | -0.216 |
| GAGTCCAA | -0.0571 |
| GTACGCAC | 0.105 |
| CACCGGTA | -0.126 |
| TATTCGAA | 0.00743 |
| CAGCTGTA | -0.0189 |
| GTCAACAC | 0.257 |
| ACGGCTCG | -0.0967 |
| CAGAAAAC | 0.152 |
| CTAGTCCC | -0.107 |
| AATGTACT | 0.152 |
| TGACGGCA | -0.155 |
| CAACAGAC | 0.0837 |
| AATTGCCC | 0.0147 |
| CTGACTTA | -0.104 |

| Sequence | PBM E-score |
| --- | --- |
| ACTTCTCT | -0.028 |
| ATAGAGCG | -0.11 |
| CTTGAGTC | -0.021 |
| ATGGTGCA | 0.0251 |
| ACTGTCAA | -0.121 |
| CTTACATC | 0.163 |
| GAGACGGA | -0.171 |
| TACCGTGA | -0.13 |
| ACCGGTCA | -0.146 |
| ATCGCCCG | -0.138 |
| CCAGAACG | -0.0663 |
| AGCAGGCT | 0.0328 |
| AAAGGAAT | -0.0306 |
| AGCTGGCC | -0.14 |
| GATAGGGC | -0.166 |
| GCGATTTA | -0.11 |
| GAATCTAA | -0.0012 |
| CATCCTAC | -0.232 |
| AGCCACTG | -0.141 |
| CCCCCGAA | -0.0659 |
| CTAAGGAG | -0.254 |
| CCCGTATC | -0.222 |
| TAGTCACA | 0.0757 |
| GCCGGAAA | -0.248 |
| GGTTGCAC | 0.0242 |

| Sequence | PBM E-score |
| --- | --- |
| GAGCCTCA | -0.282 |
| ACGGCTAT | -0.0851 |
| CCGTTGTC | -0.0341 |
| AAAATTGG | -0.129 |
| GGGCTCGA | -0.0689 |
| AACACAGA | 0.264 |
| CTGGTTGC | 0.0984 |
| GAATTAAC | 0.191 |
| CAGTAGAC | -0.0682 |
| GGTGGTTA | -0.177 |
| CACGGCGC | 0.0639 |
| GGTGGAAA | -0.331 |
| GTGCCTCA | 0.454 |
| GTCCTTTA | 0.0332 |
| ACCTCGTC | -0.155 |
| GGCGGGAC | -0.296 |
| CGCGCCAG | -0.0635 |
| CACAAAGA | 0.11 |
| GGCTTCGA | -0.0492 |
| GATTCCAC | 0.00725 |
| AGGACCAC | -0.0621 |
| ACGTAGAT | 0.269 |
| GTCGCAAC | -0.0124 |
| CTAACATA | 0.156 |
| AAAGATTC | 0.126 |

| Sequence | PBM E-score |
| --- | --- |
| AAGGTGAC | -0.0236 |
| GGATAATA | -0.0236 |
| CTCTGTTC | 0.0419 |
| CTAGAAAA | 0.118 |
| ATGAGCTC | -0.0741 |
| CAATACTC | 0.0636 |
| CGATGGGC | -0.19 |
| CACGCGGC | -0.0308 |
| AAGGACAC | 2e-05 |
| ACTGTCGC | -0.125 |
| GGTAAAAA | 0.267 |
| GCTAAAGA | 0.0361 |
| TATCCAAA | 0.0455 |
| TCTGATAA | -0.158 |
| CATACAGC | -0.19 |
| CCCAAGCA | -0.0646 |
| GAAGCTCC | -0.266 |
| GGGAGCAA | -0.134 |
| GCCACGGC | -0.164 |
| AGTCGTAA | 0.0638 |
| GCTCCAGC | -0.154 |
| CTCTTGTA | 0.239 |
